From a collection of fitness landscapes (doi:10.1126/science.1257360) come the findings set out here.

Some of the results follow.

B1: PhoQ; a variant is named by its letters at X, in order, P23837 (parent)
chain: MKKLLRLFFPLSLRVRFLLATAAVVLVLSLAYGMVALIGYSVSFDKTTFRLLRGESNLFYTLAKWENNKLHVELPENIDKQSPTMTLIYDENGQLLWAQRDVPWLMKMIQPDWLKSNGFHEIEADVNDTSLLLSGDHSIQQQLQEVREDDDDAEMTHSVAVNVYPATSRMPKLTIVVVDTIPVELKSSYMVWSWFIYVLSANLLLVIPLLWVAAWWSLRPIEALAKEVRELEEHNRELLNPATTRELTSLVRNLNRLLKSERERYDKYRTTLTDLTHSLKTPLXXLQXXLRSLRSEKMSVSDAEPVMLEQISRISQQIGYYLHRASMRGGTLLSRELHPVAPLLDNLTSALNKVYQRKGVNISLDISPEISFVGEQNDFVEVMGNVLDNACKYCLEFVEISARQTDEHLYIVVEDDGPGIPLSKREVIFDRGQRVDTLRPGQGVGLAVAREITEQYEGKIVAGESMLGGARMEVIFGRQHSAPKDE

The variants in the assay derive from B1. The experiment in a line: enrichment ratio after two sorts for PhoP signalling (ratio (wild type AVST 3.29)); higher = more functional. The conditions noted are these: with PhoP (E. coli).
In the case of HMQH, the enrichment ratio is not above 0.25.

For the variant KLKW, the enrichment ratio is not above 0.25.

On to PRPN, for which the enrichment ratio is not above 0.25.

As for HGKN, the enrichment ratio is not above 0.25.

On to DGAE, for which the enrichment ratio is not above 0.25.

For the variant LTCW, the enrichment ratio was not above 0.25.

On to NEFR, for which the enrichment ratio is not above 0.25.

As for MLSM, the enrichment ratio turned out to be 10.3.

DRGC: the enrichment ratio was not above 0.25.

On to RAPC, for which the enrichment ratio is not above 0.25.

Consider SDDW, for which the enrichment ratio is not above 0.25.

Consider KGYG, for which the enrichment ratio was not above 0.25.

Turning to MNLR, the enrichment ratio is not above 0.25.

Regarding RRDG, the enrichment ratio was not above 0.25.

RFQR: the enrichment ratio is not above 0.25.

Regarding YCIM, the enrichment ratio is not above 0.25.

In the case of QSRY, the enrichment ratio is not above 0.25.

Take DLMQ: the enrichment ratio is not above 0.25.

Consider NRKN, for which the enrichment ratio was not above 0.25.

As for TKFF, the enrichment ratio was 1.54.

On to HFMS, for which the enrichment ratio is not above 0.25.

Consider RVCL, for which the enrichment ratio was not above 0.25.

On to ARRG, for which the enrichment ratio was not above 0.25.

Take HEDS: the enrichment ratio was not above 0.25.

Regarding VSRG, the enrichment ratio was not above 0.25.

On to DLYV, for which the enrichment ratio is not above 0.25.

Regarding AHFQ, the enrichment ratio was not above 0.25.

YTFC: the enrichment ratio was not above 0.25.

On to HIYF, for which the enrichment ratio is not above 0.25.

In the case of ERFI, the enrichment ratio is not above 0.25.

Consider GTVM, for which the enrichment ratio turned out to be 36.9.

As to PEDT, the enrichment ratio was not above 0.25.

NQLY: the enrichment ratio was not above 0.25.

HFLD: the enrichment ratio was not above 0.25.

Consider NLGH, for which the enrichment ratio was not above 0.25.

On to FQAM, for which the enrichment ratio was not above 0.25.

Take WQWY: the enrichment ratio is not above 0.25.

For DHIL, the enrichment ratio was not above 0.25.

In the case of AKDY, the enrichment ratio is not above 0.25.

Take RQSL: the enrichment ratio is not above 0.25.

On to PQLQ, for which the enrichment ratio is not above 0.25.

As to DSAT, the enrichment ratio was not above 0.25.

In the case of LQIH, the enrichment ratio was not above 0.25.

Take GNAI: the enrichment ratio was 7.21.

For HPHQ, the enrichment ratio was not above 0.25.

In the case of AFDE, the enrichment ratio was not above 0.25.

Regarding SDQE, the enrichment ratio is not above 0.25.

As for TTWQ, the enrichment ratio is 1.53.

Regarding WKNP, the enrichment ratio was not above 0.25.

Turning to VDVR, the enrichment ratio turned out to be 0.427.

As for TDTQ, the enrichment ratio amounted to 1.65.

With LLNI, the enrichment ratio was not above 0.25.

Regarding TETQ, the enrichment ratio came out at 0.343.

Turning to LEFP, the enrichment ratio was not above 0.25.

For the variant ESHR, the enrichment ratio was 1.01.

Turning to RHAK, the enrichment ratio is not above 0.25.

For VFNT, the enrichment ratio is not above 0.25.

As for TGMA, the enrichment ratio was 26.1.

Regarding FSQA, the enrichment ratio was not above 0.25.

For PMLY, the enrichment ratio was not above 0.25.

Consider IQDQ, for which the enrichment ratio was not above 0.25.

With PKMK, the enrichment ratio is not above 0.25.

As to GRPR, the enrichment ratio is not above 0.25.

Turning to NHRA, the enrichment ratio is not above 0.25.

For the variant STET, the enrichment ratio is not above 0.25.

Take KMWV: the enrichment ratio was not above 0.25.

In the case of KYNR, the enrichment ratio was not above 0.25.

On to NQGI, for which the enrichment ratio is not above 0.25.

In the case of YVMD, the enrichment ratio was not above 0.25.

GWQI: the enrichment ratio is not above 0.25.

For IDIQ, the enrichment ratio is not above 0.25.

Consider PPPQ, for which the enrichment ratio was not above 0.25.

Turning to HNFC, the enrichment ratio is not above 0.25.

Take PIHA: the enrichment ratio was not above 0.25.

As to YCGT, the enrichment ratio was not above 0.25.

For the variant HLAG, the enrichment ratio was not above 0.25.

Consider RNKL, for which the enrichment ratio is not above 0.25.

For the variant GKWF, the enrichment ratio is not above 0.25.

For NHVW, the enrichment ratio is not above 0.25.

For SLDM, the enrichment ratio is not above 0.25.

As to PWGN, the enrichment ratio was not above 0.25.

Consider SNCK, for which the enrichment ratio worked out at 0.609.

Take FINH: the enrichment ratio is not above 0.25.

With MHLH, the enrichment ratio is not above 0.25.
